The other results are listed elsewhere or left out.
Columns and labels:
Assay in all cases: glycan array binding signal (z-score within array); higher = stronger binding
Conditions in all cases: glycan notation: IUPAC condensed, linker removed
[1] = molecular target: Neu5Ac(a2-3)Gal(b1-3)[Fuc(a1-4)]GlcNAc
Summary of the method: (§1)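 Glycan array data were curated from 3228 arrays in the Consortium for Functional Glycomics database and kept only where the protein sequence was available. Glycan names were converted to IUPAC-condensed notation, and columns mapping to the same glycan were averaged. The binding signal is a within-array Z-score, averaged across arrays of the same protein sequence at different concentrations or buffers and across linkers. Negative Z-scores can be read as non-binding.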

[2] = molecular target: Neu5Ac(a2-3)Gal(b1-3)[Fuc(a1-4)]GlcNAc(b1-3)Gal(b1-3)[Fuc(a1-4)]GlcNAc
Summary of the method: as §1

[3] = molecular target: Neu5Ac(a2-3)Gal(b1-3)[Fuc(a1-4)]GlcNAc(b1-3)Gal(b1-4)[Fuc(a1-3)]GlcNAc
Summary of the method: as §1

[4] = molecular target: Neu5Ac(a2-3)Gal(b1-3)[GlcNAc(b1-6)]GalNAc
Summary of the method: as §1

[5] = molecular target: Neu5Ac(a2-3)Gal(b1-3)[Neu5Ac(a2-6)]GalNAc
Summary of the method: as §1

[6] = molecular target: Neu5Ac(a2-3)Gal(b1-3)[Neu5Ac(a2-6)]GlcNAc(b1-3)[Fuc(a1-3)[Gal(b1-4)]GlcNAc(b1-6)]Gal(b1-4)Glc
Summary of the method: as §1

[7] = molecular target: Neu5Ac(a2-3)Gal(b1-3)]Neu5Ac(a2-3)Gal(b1-4)]GlcNAc
Summary of the method: as §1

Neu5Ac(a2-3)Gal(b1-4)Glc = molecular target: Neu5Ac(a2-3)Gal(b1-4)Glc
Summary of the method: as §1

[8] = molecular target: Neu5Ac(a2-3)Gal(b1-4)GlcNAc
Summary of the method: as §1

[9] = molecular target: Neu5Ac(a2-3)Gal(b1-4)GlcNAc(b1-2)Man
Summary of the method: as §1

[10] = molecular target: Neu5Ac(a2-3)Gal(b1-4)GlcNAc(b1-2)Man(a1-3)[GlcNAc(b1-4)][Neu5Ac(a2-3)Gal(b1-4)GlcNAc(b1-2)Man(a1-6)]Man(b1-4)GlcNAc(b1-4)GlcNAc
Summary of the method: as §1

[11] = molecular target: Neu5Ac(a2-3)Gal(b1-4)GlcNAc(b1-2)Man(a1-3)[Neu5Ac(a2-3)Gal(b1-4)GlcNAc(b1-2)Man(a1-6)]Man(b1-4)GlcNAc(b1-4)GlcNAc
Summary of the method: as §1

[12] = molecular target: Neu5Ac(a2-3)Gal(b1-4)GlcNAc(b1-2)Man(a1-3)[Neu5Ac(a2-3)Gal(b1-4)GlcNAc(b1-2)Man(a1-6)]Man(b1-4)GlcNAc(b1-4)[Fuc(a1-6)]GlcNAc
Summary of the method: as §1

[13] = molecular target: Neu5Ac(a2-3)Gal(b1-4)GlcNAc(b1-2)Man(a1-3)[Neu5Ac(a2-6)Gal(b1-4)GlcNAc(b1-2)Man(a1-6)]Man(b1-4)GlcNAc(b1-4)GlcNAc
Summary of the method: as §1

[14] = molecular target: Neu5Ac(a2-3)Gal(b1-4)GlcNAc(b1-2)[Neu5Ac(a2-3)Gal(b1-4)GlcNAc(b1-4)]Man(a1-3)[GlcNAc(b1-4)][Neu5Ac(a2-3)Gal(b1-4)GlcNAc(b1-2)[Neu5Ac(a2-3)Gal(b1-4)GlcNAc(b1-6)]Man(a1-6)]Man(b1-4)GlcNAc(b1-4)GlcNAc
Summary of the method: as §1

[15] = molecular target: Neu5Ac(a2-3)Gal(b1-4)GlcNAc(b1-2)[Neu5Ac(a2-3)Gal(b1-4)GlcNAc(b1-4)]Man(a1-3)[GlcNAc(b1-4)][Neu5Ac(a2-3)Gal(b1-4)GlcNAc(b1-4)Man(a1-6)]Man(b1-4)GlcNAc(b1-4)GlcNAc
Summary of the method: as §1

[16] = molecular target: Neu5Ac(a2-3)Gal(b1-4)GlcNAc(b1-2)[Neu5Ac(a2-3)Gal(b1-4)GlcNAc(b1-6)]Man(a1-6)[Neu5Ac(a2-3)Gal(b1-4)GlcNAc(b1-2)Man(a1-3)]Man(b1-4)GlcNAc(b1-4)GlcNAc
Summary of the method: as §1

[17] = molecular target: Neu5Ac(a2-3)Gal(b1-4)GlcNAc(b1-2)[Neu5Ac(a2-3)Gal(b1-4)GlcNAc(b1-6)]Man(a1-6)[Neu5Ac(a2-3)Gal(b1-4)GlcNAc(b1-2)Man(a1-3)][GlcNAc(b1-4)]Man(b1-4)GlcNAc(b1-4)GlcNAc
Summary of the method: as §1

[18] = molecular target: Neu5Ac(a2-3)Gal(b1-4)GlcNAc(b1-3)Gal
Summary of the method: as §1

[19] = molecular target: Neu5Ac(a2-3)Gal(b1-4)GlcNAc(b1-3)Gal(b1-3)GlcNAc
Summary of the method: as §1

[20] = molecular target: Neu5Ac(a2-3)Gal(b1-4)GlcNAc(b1-3)Gal(b1-4)GlcNAc
Summary of the method: as §1

[21] = molecular target: Neu5Ac(a2-3)Gal(b1-4)GlcNAc(b1-3)Gal(b1-4)GlcNAc(b1-2)Man(a1-3)[Neu5Ac(a2-3)Gal(b1-4)GlcNAc(b1-3)Gal(b1-4)GlcNAc(b1-2)Man(a1-6)]Man(b1-4)GlcNAc(b1-4)GlcNAc
Summary of the method: as §1

[22] = molecular target: Neu5Ac(a2-3)Gal(b1-4)GlcNAc(b1-3)Gal(b1-4)GlcNAc(b1-3)Gal(b1-4)GlcNAc
Summary of the method: as §1

[23] = molecular target: Neu5Ac(a2-3)Gal(b1-4)GlcNAc(b1-3)Gal(b1-4)GlcNAc(b1-3)Gal(b1-4)GlcNAc(b1-2)Man(a1-3)[Neu5Ac(a2-3)Gal(b1-4)GlcNAc(b1-3)Gal(b1-4)GlcNAc(b1-3)Gal(b1-4)GlcNAc(b1-2)Man(a1-6)]GalNAc
Summary of the method: as §1

[24] = molecular target: Neu5Ac(a2-3)Gal(b1-4)GlcNAc(b1-3)Gal(b1-4)GlcNAc(b1-3)GalNAc
Summary of the method: as §1

[25] = molecular target: Neu5Ac(a2-3)Gal(b1-4)GlcNAc(b1-3)Gal(b1-4)GlcNAc(b1-3)[Neu5Ac(a2-3)Gal(b1-4)GlcNAc(b1-3)Gal(b1-4)GlcNAc(b1-6)]GalNAc
Summary of the method: as §1

[26] = molecular target: Neu5Ac(a2-3)Gal(b1-4)GlcNAc(b1-3)Gal(b1-4)GlcNAc(b1-6)[Gal(b1-3)]GalNAc
Summary of the method: as §1

[27] = molecular target: Neu5Ac(a2-3)Gal(b1-4)GlcNAc(b1-3)Gal(b1-4)[Fuc(a1-3)]GlcNAc
Summary of the method: as §1

[28] = molecular target: Neu5Ac(a2-3)Gal(b1-4)GlcNAc(b1-3)GalNAc
Summary of the method: as §1

[29] = molecular target: Neu5Ac(a2-3)Gal(b1-4)GlcNAc(b1-3)[Neu5Ac(a2-3)Gal(b1-4)GlcNAc(b1-6)]GalNAc
Summary of the method: as §1

B1: ECL (Erythrina cristagalli), Q6YD91 (protein)
chain: VETISFSFSEFEPGNNDLTLQGAAIITQSGVLQLTKINQNGMPAWDSTGRTLYTKPVHIWDMTTGTVASFETRFSFSIEQPYTRPLPADGLVFFMGPTKSKPAQGYGYLGVFNNSKQDNSYQTLAVEFDTFSNPWDPPQVPHIGIDVNSIRSIKTQPFQLDNGQVANVVIKYDASSKILLAVLVYPSSGAIYTIAEIVDVKQVLPEWVDVGLSGATGAQRDAAETHDVYSWSFHASLPETND
glycan array binding signal (z-score) [1]: -0.32
glycan array binding signal (z-score) [2]: -0.169
glycan array binding signal (z-score) [3]: -0.351
glycan array binding signal (z-score) [4]: -0.364
glycan array binding signal (z-score) [5]: -0.296
glycan array binding signal (z-score) [6]: -0.358
glycan array binding signal (z-score) [7]: -0.187
glycan array binding signal (z-score) (Neu5Ac(a2-3)Gal(b1-4)Glc): -0.112
glycan array binding signal (z-score) [8]: -0.358
glycan array binding signal (z-score) [9]: -0.193
glycan array binding signal (z-score) [10]: -0.563
glycan array binding signal (z-score) [11]: -0.216
glycan array binding signal (z-score) [12]: -0.393
glycan array binding signal (z-score) [13]: -0.381
glycan array binding signal (z-score) [14]: -0.429
glycan array binding signal (z-score) [15]: -0.481
glycan array binding signal (z-score) [16]: -0.437
glycan array binding signal (z-score) [17]: -0.422
glycan array binding signal (z-score) [18]: -0.385
glycan array binding signal (z-score) [19]: -0.392
glycan array binding signal (z-score) [20]: -0.192
glycan array binding signal (z-score) [21]: 1.81
glycan array binding signal (z-score) [22]: -0.299
glycan array binding signal (z-score) [23]: 0.889
glycan array binding signal (z-score) [24]: -0.291
glycan array binding signal (z-score) [25]: -0.038
glycan array binding signal (z-score) [26]: 0.043
glycan array binding signal (z-score) [27]: -0.328
glycan array binding signal (z-score) [28]: -0.419
glycan array binding signal (z-score) [29]: -0.262
